# Assay results: the supplement of paper PMC8728848
# The other results are listed elsewhere or left out.
# B1: Als1 (Candida albicans), P46590 (protein)
# chain: KTITGVFDSFNSLTWSNAANYAFKGPGYPTWNAVLGWSLDGTSANPGDTFTLNMPCVFKYTTSQTSVDLTADGVKYATCQFYSGEEFTTFSTLTCTVNDALKSSIKAFGTVTLPIAFNVGGTGSSTDLEDSKCFTAGTNTVTFNDGDKDISIDVEFEKSTVDPSGYLYASRVMPSLNKVTTLFVAPQCENGYTSGTMGFSSSNGDVAIDCSNIHIGITKGLNDWNYPVSSESFSYTKTCTSNGIQIKYQNVPAGYRPFIDAYISATDVNQYTLAYTNDYTCAGSRLQSKPFTLRWTGYKNSDAGSNGIVIVATTRTVTDSTTAVTTLPFNPSVDKTKTIEILQPIPTTTITTSYVGVTTSYLTKTAPIGETATVIVDVPYHTTTTVTSEWTGTITTTTTRTNPTDSIDTVVVQVP
# Columns and labels:
# Experiment in all cases: glycan array binding signal (z-score within array); higher = stronger binding
# Conditions in all cases: glycan notation: IUPAC condensed, linker removed
# [1] = target: Fuc(a1-2)[GalNAc(b1-3)]Gal
# Summary of the method: (§1)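 Glycan array data were curated from 3228 arrays in the Consortium for Functional Glycomics database and kept only where the protein sequence was available. Glycan names were converted to IUPAC-condensed notation, and columns mapping to the same glycan were averaged. The binding signal is a within-array Z-score, averaged across arrays of the same protein sequence at different concentrations or buffers and across linkers. Negative Z-scores can be read as non-binding.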
# Fuc(a1-3)GlcNAc = target: Fuc(a1-3)GlcNAc
# Summary of the method: as §1
# [2] = target: Fuc(a1-3)[Gal(b1-4)]Glc6S
# Summary of the method: as §1
# [3] = target: Fuc(a1-3)[Gal(b1-4)]GlcNAc
# Summary of the method: as §1
# [4] = target: Fuc(a1-3)[Gal(b1-4)]GlcNAc(b1-2)Man
# Summary of the method: as §1
# [5] = target: Fuc(a1-3)[Gal(b1-4)]GlcNAc(b1-2)Man(a1-3)[Fuc(a1-3)[Gal(b1-4)]GlcNAc(b1-2)Man(a1-6)]Man(b1-4)GlcNAc(b1-4)GlcNAc
# Summary of the method: as §1
# [6] = target: Fuc(a1-3)[Gal(b1-4)]GlcNAc(b1-2)Man(a1-3)[Fuc(a1-3)[Gal(b1-4)]GlcNAc(b1-2)Man(a1-6)]Man(b1-4)GlcNAc(b1-4)[Fuc(a1-6)]GlcNAc
# Summary of the method: as §1
# [7] = target: Fuc(a1-3)[Gal(b1-4)]GlcNAc(b1-3)Gal(b1-3)[Fuc(a1-4)]GlcNAc
# Summary of the method: as §1
# [8] = target: Fuc(a1-3)[Gal(b1-4)]GlcNAc(b1-3)Gal(b1-4)[Fuc(a1-3)]GlcNAc
# Summary of the method: as §1
# [9] = target: Fuc(a1-3)[Gal(b1-4)]GlcNAc(b1-3)Gal(b1-4)[Fuc(a1-3)]GlcNAc(b1-3)Gal(b1-4)[Fuc(a1-3)]GlcNAc
# Summary of the method: as §1
# [10] = target: Fuc(a1-3)[Gal(b1-4)]GlcNAc(b1-3)GalNAc
# Summary of the method: as §1
# [11] = target: Fuc(a1-3)[Gal(b1-4)]GlcNAc(b1-6)GalNAc
# Summary of the method: as §1
# [12] = target: Fuc(a1-3)[Gal(b1-4)]GlcNAc(b1-6)[Gal(b1-3)GlcNAc(b1-3)]Gal(b1-4)Glc
# Summary of the method: as §1
# [13] = target: Fuc(a1-3)[Gal(b1-4)]GlcNAc6S
# Summary of the method: as §1
# [14] = target: Fuc(a1-3)[Gal3S(b1-4)]Glc
# Summary of the method: as §1
# [15] = target: Fuc(a1-3)[Gal3S(b1-4)]GlcNAc
# Summary of the method: as §1
# [16] = target: Fuc(a1-3)[Gal3S(b1-4)]GlcNAc6S
# Summary of the method: as §1
# [17] = target: Fuc(a1-3)[GalNAc(b1-4)]GlcNAc
# Summary of the method: as §1
# [18] = target: Fuc(a1-3)[GalNAc(b1-4)]GlcNAc6S
# Summary of the method: as §1
# Fuc(a1-4)GlcNAc = target: Fuc(a1-4)GlcNAc
# Summary of the method: as §1
# Fuc(b1-3)GlcNAc = target: Fuc(b1-3)GlcNAc
# Summary of the method: as §1
# Gal(a1-2)Gal = target: Gal(a1-2)Gal
# Summary of the method: as §1
# Gal(a1-3)Gal = target: Gal(a1-3)Gal
# Summary of the method: as §1
# Gal(a1-3)Gal(b1-3)GlcNAc = target: Gal(a1-3)Gal(b1-3)GlcNAc
# Summary of the method: as §1
# [19] = target: Gal(a1-3)Gal(b1-3)GlcNAc(b1-2)Man
# Summary of the method: as §1
# [20] = target: Gal(a1-3)Gal(b1-3)GlcNAc(b1-2)Man(a1-3)[Gal(a1-3)Gal(b1-3)GlcNAc(b1-2)Man(a1-6)]Man(b1-4)GlcNAc(b1-4)GlcNAc
# Summary of the method: as §1
# [21] = target: Gal(a1-3)Gal(b1-3)GlcNAc(b1-3)GalNAc
# Summary of the method: as §1
# [22] = target: Gal(a1-3)Gal(b1-3)GlcNAc(b1-6)GalNAc
# Summary of the method: as §1
# [23] = target: Gal(a1-3)Gal(b1-3)[Fuc(a1-4)]GlcNAc(b1-2)Man(a1-3)[Gal(a1-3)Gal(b1-3)[Fuc(a1-4)]GlcNAc(b1-2)Man(a1-6)]Man(b1-4)GlcNAc(b1-4)GlcNAc
# Summary of the method: as §1
# Gal(a1-3)Gal(b1-4)Glc = target: Gal(a1-3)Gal(b1-4)Glc
# Summary of the method: as §1
# Gal(a1-3)Gal(b1-4)GlcNAc = target: Gal(a1-3)Gal(b1-4)GlcNAc
# Summary of the method: as §1
# [24] = target: Gal(a1-3)Gal(b1-4)GlcNAc(b1-2)Man
# Summary of the method: as §1
# [25] = target: Gal(a1-3)Gal(b1-4)GlcNAc(b1-2)Man(a1-3)[Gal(a1-3)Gal(b1-4)GlcNAc(b1-2)Man(a1-6)]Man(b1-4)GlcNAc(b1-4)GlcNAc
# Summary of the method: as §1
# [26] = target: Gal(a1-3)Gal(b1-4)GlcNAc(b1-3)GalNAc
# Summary of the method: as §1
# [27] = target: Gal(a1-3)Gal(b1-4)GlcNAc(b1-6)GalNAc
# Summary of the method: as §1
# [28] = target: Gal(a1-3)Gal(b1-4)[Fuc(a1-3)]GlcNAc
# Summary of the method: as §1
# [29] = target: Gal(a1-3)Gal(b1-4)[Fuc(a1-3)]GlcNAc(b1-2)Man(a1-3)[Gal(a1-3)Gal(b1-4)[Fuc(a1-3)]GlcNAc(b1-2)Man(a1-6)]Man(b1-4)GlcNAc(b1-4)GlcNAc
# Summary of the method: as §1
binder,measurement,setting,value
B1,glycan array binding signal (z-score),[1],-0.535
same,glycan array binding signal (z-score),Fuc(a1-3)GlcNAc,-0.139
same,glycan array binding signal (z-score),[2],3.38
same,glycan array binding signal (z-score),[3],-0.443
same,glycan array binding signal (z-score),[4],0.019
same,glycan array binding signal (z-score),[5],0.227
same,glycan array binding signal (z-score),[6],0.146
same,glycan array binding signal (z-score),[7],-0.672
same,glycan array binding signal (z-score),[8],-0.268
same,glycan array binding signal (z-score),[9],-0.652
same,glycan array binding signal (z-score),[10],-0.113
same,glycan array binding signal (z-score),[11],0.895
same,glycan array binding signal (z-score),[12],0.093
same,glycan array binding signal (z-score),[13],-0.009
same,glycan array binding signal (z-score),[14],-0.307
same,glycan array binding signal (z-score),[15],0.309
same,glycan array binding signal (z-score),[16],-0.289
same,glycan array binding signal (z-score),[17],-0.193
same,glycan array binding signal (z-score),[18],0.066
same,glycan array binding signal (z-score),Fuc(a1-4)GlcNAc,-0.383
same,glycan array binding signal (z-score),Fuc(b1-3)GlcNAc,-0.181
same,glycan array binding signal (z-score),Gal(a1-2)Gal,-0.177
same,glycan array binding signal (z-score),Gal(a1-3)Gal,-0.264
same,glycan array binding signal (z-score),Gal(a1-3)Gal(b1-3)GlcNAc,-0.93
same,glycan array binding signal (z-score),[19],-0.555
same,glycan array binding signal (z-score),[20],-0.109
same,glycan array binding signal (z-score),[21],-0.58
same,glycan array binding signal (z-score),[22],-0.689
same,glycan array binding signal (z-score),[23],0.447
same,glycan array binding signal (z-score),Gal(a1-3)Gal(b1-4)Glc,-0.664
same,glycan array binding signal (z-score),Gal(a1-3)Gal(b1-4)GlcNAc,-0.705
same,glycan array binding signal (z-score),[24],-0.755
same,glycan array binding signal (z-score),[25],-0.571
same,glycan array binding signal (z-score),[26],-0.128
same,glycan array binding signal (z-score),[27],-0.612
same,glycan array binding signal (z-score),[28],1.23
same,glycan array binding signal (z-score),[29],-0.352
